The record followed here is the supplement of paper PMC10338343.

± gives the standard deviation. The entries are a selection whose mix differs from that of the whole data set.
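Also: 1 nM active piRISC with 0.1 nM target library at 33 °C single turnover.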

The subject of the assay is MIWI (PIWIL1) piRISC loaded with piRNA #1 (30 nt). Kind of assay: pre-steady-state target cleavage rate (min^-1); MIWI and MILI are mouse PIWI proteins and EfPiwi is from a freshwater sponge; tags in brackets are library labels; higher = faster piRNA-guided slicing of the target. The following applies: guide: piRNA #1 5'p-UGAGGUAGUAGGUUGUAUAGUAUCCAGAGG; auxiliary factor: 500 nM mouse GTSF1. Summed up:
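The pre-steady-state cleavage rate was derived from a burst-and-steady-state fit of Cleave-'n-Seq data. For these assays, 1 nM active affinity-purified piRISC loaded with a single synthetic guide was mixed with […] a transcribed, DNA-blocked target RNA library in HEPES–potassium acetate buffer at 33 °C, with or without 500 nM GTSF1 partner protein, for 0–8 or 0–960 min. Sequencing counts of uncleaved targets were normalised to depth and to weakly complementary targets, and k3 was capped at 0.0001 min^-1 after three trials were pooled.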
On to GGAGAGGAUACUAUACAUCCUACUACCACA, for which the “pre-steady-state target cleavage rate” value amounted to 0.252 ± 0.023. As for GGAGACCUUACUAUCACAACCUACUACCUCA, the “pre-steady-state target cleavage rate” value amounted to 0.645 ± 0.086. As for GGAGACCUAACAAUACAACCUACUACCACA, the “pre-steady-state target cleavage rate” value was 0.00615 ± 0.0049. The value for GGAGACCUAUCUAUACAACCUAACUACCUCA was 0.0063 ± 0.0018; that for GGAGAGGAUACUAAACAACCUACAACCUCA was 0.744 ± 0.074; that for GGAGAGGUUAGUAUACAACCUACUACCUCA was 0.0713 ± 0.013.

Regarding GGACUGGAUACAAUACAACCUACAACCUCA, the “pre-steady-state target cleavage rate” value amounted to 0.308 ± 0.035. GGAGACGAUACUUAUACAACCUACUACCUCA: the “pre-steady-state target cleavage rate” value was determined as 1.44 ± 0.085. As for GGAGAGGAUAGUAUACAACCUAGUACCUCA, the figure is 0.157 ± 0.024. Regarding GGUCUGGAUACUAUAGAACCUACUACGUCA, the “pre-steady-state target cleavage rate” value came to 0.023 ± 0.0054. As for GGAGACCUUACUCUACAACCUACUACCUCA, the “pre-steady-state target cleavage rate” value was 1.4 ± 0.088. Take CCUCUUGGAUACUAUACAACCUACUACCUCA: the “pre-steady-state target cleavage rate” value stood at 2.3 ± 0.12. Turning to GGAGACCAUACUAUACAACCUACUACCCUCA, the “pre-steady-state target cleavage rate” value is 1.13 ± 0.072. For the sequence CCUGUGGAUACUAUACAACCUUCUACCUCA, the “pre-steady-state target cleavage rate” value was determined as 0.724 ± 0.032.

For GGACUGGAUACUAUACAACCUACUACCGUCA, the “pre-steady-state target cleavage rate” value amounted to 0.0636 ± 0.0098. Take GGAGACCUUACUAUACAACGUUCUACCUCA: the “pre-steady-state target cleavage rate” value was determined as 0.0313 ± 0.0078. As to GGAGACCUUACUAUACAACCAACUACCACA, the “pre-steady-state target cleavage rate” value stood at 0.0729 ± 0.0098.

For the sequence GGAGACGAACUAUACAACCUACUACCUCA, the “pre-steady-state target cleavage rate” value was 1.27 ± 0.088.

GGAGAGGAUACUAUACAAGCUACUACGUCA: the “pre-steady-state target cleavage rate” value came out at 0.723 ± 0.043.

Turning to GGAGAGGAUACUAUACAACCUACUACCAGA, the “pre-steady-state target cleavage rate” value turned out to be 0.155 ± 0.019.

Take GGAGACGAUACUAUACAAGGUACUACCUCA: the “pre-steady-state target cleavage rate” value worked out at 0.341 ± 0.024. As for GGAGACCUAUCUAUACAACCUAGUACCUGA, the “pre-steady-state target cleavage rate” value is 0.00392 ± 0.0028. Turning to GGAGUCGAUACUAUACAACCUACUACCUCA, the “pre-steady-state target cleavage rate” value turned out to be 1.47 ± 0.091. Take GGACUGGAUUCUAUACAACCUAGUACCUCA: the “pre-steady-state target cleavage rate” value is 0.496 ± 0.074. In the case of “GGAGACCUAUGAUUACAACCUAGAUGGAGA [g9:g17:cont:t1A]”, the “pre-steady-state target cleavage rate” value is less than 0.0001. As for GGACUGGAUUCUUUACAACCUACUACCUCA, the “pre-steady-state target cleavage rate” value was 1.13 ± 0.1.

Consider GGAGACCUAACUAUACAACGUACUACCUCA, for which the “pre-steady-state target cleavage rate” value was determined as 0.29 ± 0.032.

With GGAGUCGAAACUAUACAACCUACUACCUCA, the “pre-steady-state target cleavage rate” value was 1.32 ± 0.081.

Consider GGAGACCUUACUAUACAACCAACAACCUCA, for which the “pre-steady-state target cleavage rate” value was determined as 0.00491 ± 0.0019. On to GGACUGGAUACAAUACAACCUACUUCCUCA, for which the “pre-steady-state target cleavage rate” value was 0.0269 ± 0.006. GCUCUGGAUACUUUACAACCUACUACCUCA: the “pre-steady-state target cleavage rate” value worked out at 1.87 ± 0.11.

In the case of GGAGACGAUACUAUGCAACCUACUACCUCA, the “pre-steady-state target cleavage rate” value stood at 1.68 ± 0.096.

For the sequence GCUCUGCAUACUAUACAACCUACUACCUGA, the “pre-steady-state target cleavage rate” value is 0.865 ± 0.12. Turning to GGAGACCUAACUAUACUACCUACUUCCUCA, the “pre-steady-state target cleavage rate” value was 0.00433 ± 0.0034. For the sequence GGUCUGGAUACUAUACAACCUACUACCAUCA, the “pre-steady-state target cleavage rate” value turned out to be 0.369 ± 0.035.

Turning to GGUCUGGAUACUAUACAACCUACUACCUGCA, the “pre-steady-state target cleavage rate” value was found to be 0.643 ± 0.074.

Consider GGAGACCAUUCUAUACAUCCUACUACCUCA, for which the “pre-steady-state target cleavage rate” value came out at 0.728 ± 0.061. Turning to GGAGACCAUACUAUACAACGUACUACCUCA, the “pre-steady-state target cleavage rate” value was determined as 0.647 ± 0.043. Turning to GGACUGGAUACUAUUGUACCUACUACCUCA, the “pre-steady-state target cleavage rate” value stood at 0.11 ± 0.024. As to GGAGACCUAUGAUAUCAACCUCACUACCUCA, the “pre-steady-state target cleavage rate” value is 0.00553 ± 0.0012.
